# The supplement of paper PMC8728848
# The list shows a part of the results.
# B1: SEX4 (Arabidopsis thaliana), Q944A8 (protein)
# chain: TQAMGAVLTYRHELGMNYNFIRPDLIVGSCLQTPEDVDKLRKIGVKTIFCLQQDPDLEYFGVDISSIQAYAKKYSDIQHIRCEIRDFDAFDLRMRLPAVVGTLYKAVKRNGGVTYVHCTAGMGRAPAVALTYMFWVQGYKLMEAHKLLMSKRSCFPKLDAIRNATIDILTGLKRKTVTLTLKDKGFSRVEISGLDIGWGQRIPLTLGKGTGFWILKRELPEGQFEYKYIIDGEWTHNEAEPFIGPNKDGHTNNYAKVVDDPTSVDGTTRERLSSEDPELLEEERSKLIQFLETCSEAEV
# How the values were obtained:
# Assay in all cases: glycan array binding signal (z-score within array); higher = stronger binding
# Settings in all cases: glycan notation: IUPAC condensed, linker removed
# [1] = molecular target: Neu5Ac(a2-3)Gal(b1-4)[Fuc(a1-3)]GlcNAc(b1-3)Gal(b1-4)GlcNAc
# Procedure, shortened: (§1)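 The binding signal is a Z-score computed within each array. Data were drawn from 3228 arrays in the Consortium for Functional Glycomics database, restricted to those with a known protein sequence. Scores were averaged over arrays of the same protein sequence at different concentrations or buffers, and over linkers, and negative values can be taken as non-binding.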
# [2] = molecular target: Neu5Ac(a2-3)Gal(b1-4)[Fuc(a1-3)]GlcNAc(b1-3)Gal(b1-4)[Fuc(a1-3)]GlcNAc(b1-3)Gal(b1-4)[Fuc(a1-3)]GlcNAc
# Procedure, shortened: as §1
# [3] = molecular target: Neu5Ac(a2-3)Gal(b1-4)[Fuc(a1-3)]GlcNAc(b1-3)GalNAc
# Procedure, shortened: as §1
# [4] = molecular target: Neu5Ac(a2-3)Gal(b1-4)[Fuc(a1-3)]GlcNAc(b1-6)[Gal(b1-3)]GalNAc
# Procedure, shortened: as §1
# [5] = molecular target: Neu5Ac(a2-3)Gal(b1-4)[Fuc(a1-3)]GlcNAc(b1-6)[Neu5Ac(a2-3)Gal(b1-3)]GalNAc
# Procedure, shortened: as §1
# [6] = molecular target: Neu5Ac(a2-3)Gal(b1-4)[Fuc(a1-3)]GlcNAc6S
# Procedure, shortened: as §1
# [7] = molecular target: Neu5Ac(a2-3)Gal6S(b1-4)GlcNAc
# Procedure, shortened: as §1
# [8] = molecular target: Neu5Ac(a2-3)Gal6S(b1-4)[Fuc(a1-3)]GlcNAc
# Procedure, shortened: as §1
# [9] = molecular target: Neu5Ac(a2-3)GalNAc
# Procedure, shortened: as §1
# [10] = molecular target: Neu5Ac(a2-3)GalNAc(b1-4)GlcNAc
# Procedure, shortened: as §1
# [11] = molecular target: Neu5Ac(a2-3)[GalNAc(b1-4)]Gal(b1-4)Glc
# Procedure, shortened: as §1
# [12] = molecular target: Neu5Ac(a2-3)[GalNAc(b1-4)]Gal(b1-4)GlcNAc
# Procedure, shortened: as §1
# [13] = molecular target: Neu5Ac(a2-3)[GalNAc(b1-4)]Gal(b1-4)GlcNAc(b1-3)GalNAc
# Procedure, shortened: as §1
# [14] = molecular target: Neu5Ac(a2-3)[Neu5Ac(a2-6)]GalNAc
# Procedure, shortened: as §1
# [15] = molecular target: Neu5Ac(a2-6)Gal
# Procedure, shortened: as §1
# [16] = molecular target: Neu5Ac(a2-6)Gal(b1-3)GlcNAc(b1-3)[Gal(b1-4)GlcNAc(b1-6)]Gal(b1-4)Glc
# Procedure, shortened: as §1
# [17] = molecular target: Neu5Ac(a2-6)Gal(b1-4)Glc
# Procedure, shortened: as §1
# [18] = molecular target: Neu5Ac(a2-6)Gal(b1-4)GlcNAc
# Procedure, shortened: as §1
# [19] = molecular target: Neu5Ac(a2-6)Gal(b1-4)GlcNAc(b1-2)Man(a1-3)Man(b1-4)GlcNAc(b1-4)GlcNAc
# Procedure, shortened: as §1
# [20] = molecular target: Neu5Ac(a2-6)Gal(b1-4)GlcNAc(b1-2)Man(a1-3)[Gal(b1-4)GlcNAc(b1-2)Man(a1-6)]Man(b1-4)GlcNAc(b1-4)GlcNAc
# Procedure, shortened: as §1
# [21] = molecular target: Neu5Ac(a2-6)Gal(b1-4)GlcNAc(b1-2)Man(a1-3)[GlcNAc(b1-2)Man(a1-6)]Man(b1-4)GlcNAc(b1-4)GlcNAc
# Procedure, shortened: as §1
# [22] = molecular target: Neu5Ac(a2-6)Gal(b1-4)GlcNAc(b1-2)Man(a1-3)[GlcNAc(b1-2)Man(b1-4)GlcNAc(b1-2)Man(a1-6)]Man(b1-4)GlcNAc(b1-4)GlcNAc
# Procedure, shortened: as §1
# [23] = molecular target: Neu5Ac(a2-6)Gal(b1-4)GlcNAc(b1-2)Man(a1-3)[Man(a1-6)]Man(b1-4)GlcNAc(b1-4)GlcNAc
# Procedure, shortened: as §1
# [24] = molecular target: Neu5Ac(a2-6)Gal(b1-4)GlcNAc(b1-2)Man(a1-3)[Neu5Ac(a2-6)Gal(b1-4)GlcNAc(b1-2)Man(a1-6)]Man(b1-4)GlcNAc(b1-4)GlcNAc
# Procedure, shortened: as §1
# [25] = molecular target: Neu5Ac(a2-6)Gal(b1-4)GlcNAc(b1-2)Man(a1-6)Man(b1-4)GlcNAc(b1-4)GlcNAc
# Procedure, shortened: as §1
# [26] = molecular target: Neu5Ac(a2-6)Gal(b1-4)GlcNAc(b1-2)Man(a1-6)[Gal(b1-4)GlcNAc(b1-2)Man(a1-3)]Man(b1-4)GlcNAc(b1-4)GlcNAc
# Procedure, shortened: as §1
# [27] = molecular target: Neu5Ac(a2-6)Gal(b1-4)GlcNAc(b1-2)Man(a1-6)[GlcNAc(b1-2)Man(a1-3)]Man(b1-4)GlcNAc(b1-4)GlcNAc
# Procedure, shortened: as §1
# [28] = molecular target: Neu5Ac(a2-6)Gal(b1-4)GlcNAc(b1-2)Man(a1-6)[Man(a1-3)]Man(b1-4)GlcNAc(b1-4)GlcNAc
# Procedure, shortened: as §1
# [29] = molecular target: Neu5Ac(a2-6)Gal(b1-4)GlcNAc(b1-3)Gal(b1-3)GlcNAc
# Procedure, shortened: as §1
binder,measurement,setting,value
B1,glycan array binding signal (z-score),[1],0.033
same,glycan array binding signal (z-score),[2],-0.185
same,glycan array binding signal (z-score),[3],0.223
same,glycan array binding signal (z-score),[4],0.027
same,glycan array binding signal (z-score),[5],0.292
same,glycan array binding signal (z-score),[6],-0.007
same,glycan array binding signal (z-score),[7],1.05
same,glycan array binding signal (z-score),[8],0.109
same,glycan array binding signal (z-score),[9],-0.529
same,glycan array binding signal (z-score),[10],-0.493
same,glycan array binding signal (z-score),[11],0.521
same,glycan array binding signal (z-score),[12],0.114
same,glycan array binding signal (z-score),[13],0.886
same,glycan array binding signal (z-score),[14],-0.275
same,glycan array binding signal (z-score),[15],-0.496
same,glycan array binding signal (z-score),[16],-0.151
same,glycan array binding signal (z-score),[17],-0.274
same,glycan array binding signal (z-score),[18],-0.393
same,glycan array binding signal (z-score),[19],1.49
same,glycan array binding signal (z-score),[20],-0.499
same,glycan array binding signal (z-score),[21],-0.476
same,glycan array binding signal (z-score),[22],1.41
same,glycan array binding signal (z-score),[23],2.32
same,glycan array binding signal (z-score),[24],-0.222
same,glycan array binding signal (z-score),[25],0.212
same,glycan array binding signal (z-score),[26],0.316
same,glycan array binding signal (z-score),[27],-0.356
same,glycan array binding signal (z-score),[28],0.706
same,glycan array binding signal (z-score),[29],0.56
